Read-outs that look alike come from different tables or passages of the source.

From patent US20250281631A1, “ANTIBODY-DRUG CONJUGATES AND PREPARATION METHODS AND USE THEREOF” (SICHUAN KELUN-BIOTECH BIOPHARMACEUTICAL CO., LTD, priority 2022, published 2025) come the findings set out here.

Series [1] deals with MDA-MB-453 cells. Kind of series: In vitro cytotoxicity of anti-human HER3 ADCs (second test, Table 39). The class given is cell-based. The source says: 10. In Vitro Cytotoxicity of Anti-Human HER3 Antibody-Drug Conjugates
The subject of series [2] is MDA-MB-453 cells. Kind of series: Endocytosis effects of anti-human HER3 antibody and ADC (pHrodo, flow cytometry). It counts as cell-based. The note with it: MDA-MB-453 cells, pHrodo, 24 hours. How it is done: 9. Detection of Endocytosis Effects of Anti-Human HER3 Antibody Conjugates
The endocytosis effects of anti-human HER3 ADC in MDA-MB-453 cells were detected by flow cytometry (Beckman, model Cytoflex).
Adherent cells were digested with Trypsin-EDTA (0.25% Shanghai Basal Media Technologies) solution, counted, and adjusted the cell concentration to 1×10^5/ml with complete culture medium, then 100 μl of the cell suspension was added to the 96-well plate (the cell number is 1× 10^4/well), the 96-well plate was incubated in constant temperature CO2 incubator at 37° C. for 24 hours. Then took out the 96-well plate, discarded the medium, and added 50 μl of fresh complete culture medium to each well, the bi-specific antibody and control antibody were diluted with complete culture medium by serial dilution, the final concentrations were 0.55, 1.64, 4.94, 14.81, 44.44, 133.33, 400, 1200 ng/ml, 8 concentrations in total; PHrodo solution (Thermo) was diluted with complete culture medium to 12 μg/ml (the final concentration of PHrodo is 3 μg/ml); the serial diluted antibody candidates and diluted PHrodo solution were 1:1 mixed (30 μl 30 μl), incubated at room temperature in dark for 30 minutes; add 50 μl antibody candidate and PHrodo solution mixture to 96-well bplace, cultured at 37° C., 5% CO2 for 24 hours; took out the 96-well plate, discarded medium, washed once with sterile PBS, then cells were digested with 100 μl/well Trypsin-EDTA (0.25%), neutralized with 100 μl complete culture medium; then cells were separated by piping up and down and detected by flow cytometry. Data processing: the average fluorescence signal values were exported, and then input into GraphPad Prism 6 software to calculate EC50.
(In general: Flow cytometry measures light scatter and fluorescence of single cells or particles in a stream.)

For series [3] the following is noted: 37° C., 1 to 168 hours. How it is done: 4. Detection of Plasma Stability of Anti-Human HER3 Antibody-Drug Conjugate
3.59 μl of 20.9 mg/ml 22B6-A-07-A-1 ADC sample was precisely weighted and transferred into EP tubes, added with 496 μl of human, cynomolgus monkey and mouse blank plasma respectively, and mixed well to obtain human, cynomolgus monkey and mouse plasma samples containing 22B6-A-07-A-1 ADC. The samples were placed in a constant temperature incubator and incubated at 37° C., and 50 μl of each sample was taken at 1, 3, 6, 24, 48, 96 and 168 hours, added with 200 μl of 0.5% formic acid-acetonitrile to precipitate protein, and centrifuged at 13,000 rpm at 4° C. for 10 min, then the supernatant was taken and stored at −80° C. After all samples were collected, the concentrations of the cytotoxic drugs were detected by LC-MS/MS.

Series [4] relates to NCI-N87 gastric cancer xenograft model. Kind of series: In vivo drug efficacy in NCI-N87 CDX model. Particulars: 3 mg/kg. More on the design: species or system female BALB/c-nu mice. From the text: The following formula was used to calculate the tumor growth inhibition rate TGI (%), which was used to evaluate the tumor inhibitory efficacy:
[formula] • wherein, • VTend represented a mean value of tumor volume at the end of the experiment in a treatment group • VTstart represented a mean value of tumor volume at the beginning of the administration in a treatment group • VCend represented a mean value of tumor volume at the end of the experiment in the negative control group • VCstart represented a mean value of tumor volume at the beginning of the administration in the negative control group
6. Detection of In Vivo Drug Efficacy of Anti-Human HER3 Antibody-Drug Conjugates in N87 Model
NCI-N87 cells were cultured at 37° C. with 5% CO2 in RPMI1640 medium containing 10% fetal bovine serum. The NCI-N87 cells in the exponential growth phase were collected, resuspended in PBS to an appropriate concentration, and inoculated subcutaneously in female BALB/c-nu mice to establish a human gastric cancer model. When the average volume of tumor was about 120 mm^3, the animals are randomly divided into groups according to the tumor size, including: vehicle control group, hIgG1-A-07-A 3 mg/kg group, ADC 22B6-A-07-A-1 3 mg/kg group, ADC 47A3-A-07-A 3 mg/kg group, and ADC 100H7-A-07-A 3 mg/kg group. All animals were administered via injection through tail vein on Day 0, Day 4 and Day 7, and 3 times in total. After administration, the tumor diameter was measured twice a week with a vernier caliper, and the tumor volume was calculated according to the following formula: V=0.5 a×b^2, wherein a and b represented the long and short diameters of tumor, respectively, and the death of animals was observed and recorded every day.

Another series has as its system A431 cells. Kind of series: Cell affinity of anti-human HER3 antibodies and ADCs by flow cytometry. Particulars: Table 32. The class given is binding. The source says:
(§1) 1. Detection of Cell Affinity of Anti-Human HER3 Antibodies and their Drug Conjugates
(§2) The affinity of anti-human HER3 ADC to MDA-MB-453, NCI-H358, KPL-4, and A431 cells was detected by flow cytometry (Beckman, model Cytoflex).
(§3) Adherent MDA-MB-453, NCI-H358, KPL-4, A431 cells were digested with Tryple (manufacturer: Gibco) solution, counted, and an appropriate amount of the cells were taken, washed twice with 1×PBS, resuspended in 1% BSA in PBS solution, and then transferred to a 96-well sharp-bottom plate, 50 μl per well; candidate antibodies and drug conjugates thereof were diluted with 1% BSA in PBS solution by 3-fold or 2.5-fold serial dilution starting from 5 μg/mL, and then 50 μl of the diluted antibody or antibody-drug conjugate was added to the sharp-bottom plate containing the cells, and incubation was carried out at 4° C. for 40 minutes; the cells were washed twice with PBS, then added with 50 μl of diluted secondary antibody to each well, mixed, and incubated at 4° C. for 30 minutes; the cells were washed with PBS twice, then resuspended in 400 μl of PBS and detected by flow cytometry. Data processing: the average fluorescence signal values were exported, and then input into GraphPad Prism 6 software to calculate EC50. The results were shown in Table 32 and FIGS. 1A, 1B, 1C, and 1D. […] Moreover, when the naked antibody was formed into ADC through conjugation, the affinity to cells was less affected, and the affinity of 22B6 formed into ADC by conjugation was still the highest.

In series [5] the test system is MDA-MB-453 cells. The series is described as above. Particulars: MDA-MB-453 cells, flow cytometry, Table 32. The class given is binding.
Source text: as §1, §2, §3

A further series deals with KPL-4 cells. The series is described as above. The class given is binding. The note with it: Table 32.
Source text: as §1, §2, §3

A further series deals with NCI-H358 cells. The series is described as above. It counts as binding. The note with it: Table 32.
Source text: as §1, §2, §3

[6] abbreviates: tail vein injection Day 0, 4, 7, Day 32.

B1: 22B6-A-07-A-1: ADC of antibody 22B6D2-hIgG1 conjugated to drug-linker A-07-A, DAR 7.99 (conjugate)
heavy: EVHLVESGGGVVQPGRSLRLSCATSGFTFRSYGMHWVRQAPGKGLEWVAVIWYDGSNKYYADSVKGRFTISRDISKNTLYLQMNSLTAEDTAVYYCARYYYDSNGYYDAFDIWGQGTMVTVSSASTKGPSVFPLAPSSKSTSGGTAALGCLVKDYFPEPVTVSWNSGALTSGVHTFPAVLQSSGLYSLSSVVTVPSSSLGTQTYICNVNHKPSNTKVDKRV[in this place human IgG1 Fc]
light: DIQLTQSPSFLSASVGDRVTITCRASQGISNYLAWYQQKPGKAPKLLIFAASTLQSGVPSRFSGSGSGAEFTLTISSLEPEDFATYYCQQLNSYPITFGQGTRLEIKRTVAAPSVFIFPPSDEQLKSGTASVVCLLNNFYPREAKVQWKVDNALQSGNSQESVTEQDSKDSTYSLSSTLTLSKADYEKHKVYACEVTHQGLSSPVTKSFNRGEC
As to B1, the IC50 in the series with MDA-MB-453 cells [1] (MDA-MB-453 cells, 6 days, CCK8, Table 39) is 4 nM. The “killing effects in MDA-MB-453 cells” value with MDA-MB-453 cells [1] (result in words) is “significant killing effects”. This molecule also showed an EC50 endocytosis effects in the series on MDA-MB-453 cells [2] of 0.01222 µg/mL. Also, the “shedding of the cytotoxic drugs” value in series [3] (cynomolgus monkey plasma), in series [3] (human plasma) and in series [3] (mouse plasma) was at most 5% throughout. Besides, the T/C in series [4] (setting [6]) was determined as 43.61%. The TGI in series [4] (setting [6]) is 66.59%. The “Tumor volume (x ± SEM)” value in series [4] (setting [6]) worked out at 342.37 ± 37.22 mm^3. Besides, the “inhibitor effect on the tumor growth” value in series [4] (result in words) was “significant inhibitor effect on the tumor growth”. The “growth inhibition rate (TGI)” value in series [4] (tail vein, Day 0, Day 4 and Day 7, Day 32) was 66.59%. Moreover, the EC50 cell affinity with A431 cells amounted to 0.02836 µg/mL; in the series on MDA-MB-453 cells [5], 0.05598 µg/mL; in the series on KPL-4 cells it was 0.03251 µg/mL; in the series with NCI-H358 cells, 0.03291 µg/mL.

In general, IC50 refers to the point on the concentration scale where inhibition reaches its midpoint. In general, T/C refers to the result in the treated group divided by that in the control group, in per cent. For orientation: TGI means how far tumour growth fell short of that in controls.
